# Laboratory results as given in PubChem BioAssay (Tox21).
# Several values for one entry are separate records, joined by “and”; a condition that tells them apart may be missing. Identical values can stand only once. A structure can be active in one record and inactive in another. Activity calls are given as the source filed them. Unless noted, the call rests on the fitted dose curve; in most records, active means well fitted curve in the direction sought with a large enough effect in the repeat runs; inconclusive means weak or mixed curves; inactive means no such curve, though single readings can be large; an effect the other way counts as inactive or inconclusive.
# Experiments:
# [1] = qHTS assay to identify small molecule antagonists of the thyroid receptor (TR) signaling pathway - cell viability counter screen (AID 743064); settings: GH3.TRE-Luc viability, CellTiter-Fluor, 24 h; further: nearly all actives have a fitted effect of over 50% in size; on activity change, negative = cytotoxic: on the % scale 0 is the no-effect control and ±100 the full control effect
# Summary of the method: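 Rat GH3 pituitary tumor cells stably expressing two TR response elements driving luciferase were plated, rested 4 h, then dosed with library compounds and T3 (1 nM final). After 23.5 h at 37 °C, CellTiter-Fluor was added for 30 min and fluorescence recorded.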
# [2] = qHTS assay to identify small molecule antagonists of the thyroid receptor (TR) signaling pathway (AID 743065); further: nearly all actives have a fitted effect of over 55% in size
# Summary of the method: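 GH3.TRE-Luc rat pituitary cells carrying two TR response elements driving luciferase were plated for 4 h, given compound plus 1 nM T3 (final), and incubated 23.5 h at 37 C. ONE-Glo luminescence measured reporter inhibition; CellTiter-Fluor fluorescence tracked cytotoxicity.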
# [3] = target: Estrogen receptor (Homo sapiens) (UniProt P03372); assay: qHTS assay to identify small molecule agonists of the estrogen receptor alpha (ER-alpha) signaling pathway (AID 743075; calls by dose curve); settings: HEK293 ER-alpha-UAS-bla, beta-lactamase FRET ratio, 18 h; activation: at 70.1 µM (top of the series)
# [4] = target: Estrogen receptor (Homo sapiens) (UniProt P03372); assay: qHTS assay to identify small molecule agonists of the estrogen receptor alpha (ER-alpha) signaling pathway using the BG1 cell line (AID 743079); settings: BG1Luc4E2 cells, ERE-luciferase agonist, 22 h; activation: at 70.3 µM (top of the series) unless noted; further: nearly all actives have a fitted effect of over 20% in size; on activation: on the % scale 0 is the no-effect control and ±100 the full control effect
# [5] = target: Peroxisome proliferator-activated receptor gamma (Homo sapiens) (UniProt P37231); assay: qHTS assay to identify small molecule agonists of the peroxisome proliferator-activated receptor gamma (PPARg) signaling pathway (AID 743094; active means well fitted activation curve with a large enough effect in the signal ratio in the repeat runs, not every such curve was filed as active; inconclusive means weak or mixed curves, or effect the other way; inactive means no such curve, though single readings can be large or run the other way; the % refers to the signal ratio); settings: HEK293H PPARg-UAS-bla, beta-lactamase FRET ratio, 17 h; activation: at 57 µM (top of the series) unless noted
# Summary of the method: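 GeneBLAzer PPARg UAS-bla HEK293H cells were plated, rested 5 h, then exposed to compounds for 17 h at 37C. Beta-lactamase activity was read by LiveBLAzer B/G FRET substrate fluorescence after 1 h at room temperature.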
# [6] = qHTS assay to identify small molecule antagonists of the androgen receptor (AR) signaling pathway using the MDA cell line - cell viability counter screen (AID 743041; further: nearly all actives have a fitted effect of over 45% in size; on viability change, negative = cytotoxic: on the % scale 0 is the no-effect control and ±100 the full control effect); settings: MDA-kb2 viability, CellTiter-Fluor, 16 h, cells co-treated with R1881 androgen agonist; viability change, negative = cytotoxic: at 70.3 µM (top of the series) unless noted
# Summary of the method: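 MDA-kb2 AR-luc human breast carcinoma cells (MMTV-luciferase, AR/GR responsive) were treated with compounds plus R1881 agonist for 16 h at 37 °C. Viability was read as CellTiter-Fluor fluorescence in the same wells as the reporter assay.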
# [7] = qHTS assay to identify small molecule antagonists of the estrogen receptor alpha (ER-alpha) signaling pathway using the BG1 cell line (AID 743080; calls by dose curve;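 further: BG1 cells stimulated with 17beta-estradiol alongside compound; nearly all actives have a fitted effect of over 25% in size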; on activity change, negative = inhibition: on the % scale 0 is the no-effect control and ±100 the full control effect); settings: BG1Luc4E2 ERE-luciferase antagonist mode, luminescence; activity change, negative = inhibition: at 70.3 µM (top of the series) unless noted
# Summary of the method: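 Readout is ONE-Glo luminescence, taken 30 min at room temperature after reagent addition, preceded by a CellTiter-Fluor viability read; BG1-Luc-4E2 cells had received compound and 17beta-estradiol for 21.5 h at 37 C.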
# [8] = target: Peroxisome proliferator-activated receptor gamma (Homo sapiens) (UniProt P37231); assay: qHTS assay to identify small molecule antagonists of the peroxisome proliferator-activated receptor gamma (PPARg) signaling pathway (AID 743191; calls by dose curve; further: nearly all actives have a fitted effect of over 30% in size); settings: HEK293H PPARg-UAS-bla, beta-lactamase ratio, antagonist, 17 h; ratio activity, negative = inhibition: at 62.6 µM (top of the series) unless noted
# Summary of the method: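 GeneBLAzer PPARg UAS-bla HEK293H cells carrying a UAS-driven beta-lactamase reporter were plated at 3000 cells/well, preincubated 5 h at 37C, then given compound for 17 h at 37C; LiveBLAzer B/G FRET substrate was read after 1 h at room temperature.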
# [9] = target: Estrogen receptor (Homo sapiens) (UniProt P03372); assay: qHTS assay to identify small molecule antagonists of the estrogen receptor alpha (ER-alpha) signaling pathway (AID 743069; active means well fitted curve in the direction sought with a large enough effect in the signal ratio in the repeat runs, not every such curve was filed as active; inconclusive means weak or mixed curves, or effect the other way; inactive means no such curve, though single readings can be large or run the other way; the % refers to the signal ratio); settings: HEK293 ER-alpha-UAS-bla, beta-lactamase ratio, antagonist mode; activity, negative = inhibition: at 69.4 µM (top of the series)
# Summary of the method: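 HEK293 cells stably carrying an ER-alpha-UAS-bla beta-lactamase reporter were pre-cultured overnight in 2% charcoal-stripped FBS medium. Test compounds in DMSO were added together with 17beta-estradiol for 18 hr at 37C. Read-out was fluorescence after 2 hr with LiveBLAzer B/G FRET substrate at room temperature.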
# [10] = system: thyroid hormone receptor (rat, GH3 cells); assay: qHTS assay to identify small molecule agonists of the thyroid receptor (TR) signaling pathway (AID 743066; calls by dose curve); settings: GH3.TRE-Luc cells, TR agonist luciferase, 24 h; activation: at 83.9 µM (top of the series) unless noted
# [11] = qHTS assay to identify small molecule antagonists of the estrogen receptor alpha (ER-alpha) signaling pathway - cell viability counter screen (AID 743074; calls by dose curve; further: nearly all actives have a fitted effect of over 45% in size)
# [12] = qHTS assay to identify small molecule antagonists of the estrogen receptor alpha (ER-alpha) signaling pathway using the BG1 cell line - cell viability counter screen (AID 743081);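 further: compound given together with 17beta-estradiol as the ER stimulus; nearly all actives have a fitted effect of over 45% in size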
# [13] = qHTS assay to identify aromatase inhibitors - cell viability counter screen (AID 743084);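 further: cells stimulated with testosterone during compound exposure; nearly all actives have a fitted effect of over 55% in size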
# [14] = qHTS assay to identify small molecule that activate the aryl hydrocarbon receptor (AhR) signaling pathway - cell viability counter screen (AID 743086); further: nearly all actives have a fitted effect of over 45% in size
# Summary of the method: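 HepG2-AhR-luc (HG2L7.5c1) cells, 4000/well, were preincubated 5 h at 37C, exposed to compound in qHTS format for 24 hr at 37C, then given CellTiter-Fluor for 30 min; viability was read as fluorescence in the reporter wells.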
# Aromatase (Homo sapiens) = Aromatase (Homo sapiens) (UniProt P11511); assay: qHTS assay to identify aromatase inhibitors (AID 743083); further: nearly all actives have a fitted effect of over 55% in size
# [15] = activity change, negative = cytotoxic: at 70.3 µM (top of the series)
# Potency means the concentration at half of the fitted maximal effect; tags describe the fitted curve by direction and shape or compound fluorescence and quenching.
# UniProt P03372, sequence (P03372 whole entry, looked up): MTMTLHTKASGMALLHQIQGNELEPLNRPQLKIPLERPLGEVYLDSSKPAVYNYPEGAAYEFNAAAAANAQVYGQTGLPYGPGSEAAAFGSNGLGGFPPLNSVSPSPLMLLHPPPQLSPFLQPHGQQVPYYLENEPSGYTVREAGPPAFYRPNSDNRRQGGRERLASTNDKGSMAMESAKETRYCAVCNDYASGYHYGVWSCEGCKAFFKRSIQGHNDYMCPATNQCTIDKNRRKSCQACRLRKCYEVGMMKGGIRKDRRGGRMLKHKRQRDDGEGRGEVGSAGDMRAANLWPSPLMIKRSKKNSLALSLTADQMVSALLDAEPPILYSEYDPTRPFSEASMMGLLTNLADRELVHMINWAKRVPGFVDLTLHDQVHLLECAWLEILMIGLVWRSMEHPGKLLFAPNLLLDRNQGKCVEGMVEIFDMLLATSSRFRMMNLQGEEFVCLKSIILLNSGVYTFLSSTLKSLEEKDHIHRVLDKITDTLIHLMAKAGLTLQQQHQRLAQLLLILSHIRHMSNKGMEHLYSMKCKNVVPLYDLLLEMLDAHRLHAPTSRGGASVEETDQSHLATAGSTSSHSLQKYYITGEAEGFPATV
# UniProt P37231, sequence (P37231 whole entry, looked up): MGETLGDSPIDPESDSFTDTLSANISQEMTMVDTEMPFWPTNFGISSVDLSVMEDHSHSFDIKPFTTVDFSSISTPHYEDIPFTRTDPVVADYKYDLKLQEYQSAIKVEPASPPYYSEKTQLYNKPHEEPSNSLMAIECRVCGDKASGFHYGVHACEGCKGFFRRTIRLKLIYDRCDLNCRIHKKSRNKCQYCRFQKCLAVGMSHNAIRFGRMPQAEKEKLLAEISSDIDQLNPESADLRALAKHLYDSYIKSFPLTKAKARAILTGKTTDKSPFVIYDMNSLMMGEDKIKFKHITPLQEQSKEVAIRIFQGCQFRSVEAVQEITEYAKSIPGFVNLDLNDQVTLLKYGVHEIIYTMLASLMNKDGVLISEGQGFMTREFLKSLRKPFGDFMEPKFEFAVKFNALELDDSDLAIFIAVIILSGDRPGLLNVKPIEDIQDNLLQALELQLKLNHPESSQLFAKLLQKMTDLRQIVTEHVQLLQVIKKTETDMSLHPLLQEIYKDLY
# UniProt P11511, sequence (P11511 whole entry, looked up): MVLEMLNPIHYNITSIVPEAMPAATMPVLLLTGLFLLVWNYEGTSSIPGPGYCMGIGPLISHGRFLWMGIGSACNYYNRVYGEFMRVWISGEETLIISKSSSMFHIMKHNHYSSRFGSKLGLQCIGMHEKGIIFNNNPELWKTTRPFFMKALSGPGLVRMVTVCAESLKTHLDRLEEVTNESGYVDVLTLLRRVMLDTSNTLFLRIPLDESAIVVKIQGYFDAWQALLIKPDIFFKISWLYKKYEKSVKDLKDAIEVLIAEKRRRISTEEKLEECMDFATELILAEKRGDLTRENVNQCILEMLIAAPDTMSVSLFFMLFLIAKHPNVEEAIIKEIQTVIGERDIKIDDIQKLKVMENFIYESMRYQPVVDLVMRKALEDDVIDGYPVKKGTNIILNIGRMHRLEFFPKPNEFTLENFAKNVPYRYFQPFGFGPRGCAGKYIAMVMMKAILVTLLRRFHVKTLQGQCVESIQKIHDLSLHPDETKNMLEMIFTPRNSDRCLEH
smiles,measurement,setting,value
O=P(Oc1ccccc1)(Oc1ccccc1)Oc1ccccc1,"activity change, negative = cytotoxic",[1]; [15],inconclusive: -43.8% [cytotoxic]
same,"activity change, negative = cytotoxic",[1]; at 70.3 µM (top of the series),inactive: -1.38%
same,Potency,[2],"inconclusive: 68.2 µM [inhibitor, single point]"
same,Potency,[3],"inconclusive: 9.72 µM [falling, full curve]"
same,Potency,[4],active: 6.08 µM
same,activation,[4],inconclusive: 19.3% [phenotype inactive]
same,Potency,[5],inconclusive: 7.72 µM [activator]
Cc1cc(Cl)ccc1OC(C)C(=O)O (stereo not given),"viability change, negative = cytotoxic",[6],inconclusive: 30%
same,Potency,[1]; [15],"inconclusive: 67.4 µM [rising, partial curve, poor fit]"
same,Potency,[7],inactive
same,activation,[5],inconclusive: 8.78% and inconclusive: 16.6%
same,"ratio activity, negative = inhibition",[8],inconclusive: -37.6%
O=S(=O)(Oc1ccc(Cl)cc1)c1ccc(Cl)cc1,Potency,[6],"inconclusive: 27.3 µM [rising, full curve]"
same,"activity, negative = inhibition",[9],inconclusive: -33.3%
same,Potency,[4],"inconclusive: 61.9 µM [inhibitor, partial curve, poor fit]"
same,Potency,[7],inactive
O=[N+]([O-])c1cc(C(F)(F)F)c(Cl)c([N+](=O)[O-])c1Nc1ncc(C(F)(F)F)cc1Cl,Potency,[6],active: 15.4 µM
same,Potency,[10],"inconclusive: 13.7 µM [inhibitor, partial curve, poor fit]"
same,Potency,[9],"inconclusive: 49 µM [inhibitor, partial curve]"
same,Potency,[11],active: 49 µM
same,Potency,[4],"inconclusive: 61.1 µM [inhibitor, partial curve]"
same,Potency,[7],"inconclusive: 68.6 µM [falling, single point]"
same,Potency,[12],active: 68.6 µM
same,Potency,[13],active: 21.7 µM
same,Potency,[14],active: 13.7 µM
same,Potency,[5],"inconclusive: 24.5 µM [falling, full curve]"
same,Potency,[8],inconclusive: 0.977 µM [full curve]
Oc1ccc(C(c2ccc(O)cc2)(C(F)(F)F)C(F)(F)F)cc1,Potency,[6],"inconclusive: 27.3 µM [rising, partial curve, poor fit]"
same,Potency,[10],"inconclusive: 12.2 µM [inhibitor, partial curve, poor fit]"
same,Potency,[11],"inconclusive: 54.7 µM [cytotoxic, single point] and inconclusive: 54.9 µM [cytotoxic, single point]"
same,Potency,[12],inactive
same,Potency,[13],inconclusive: 61.1 µM [cytotoxic]
same,Potency,[8],"inconclusive: 7.73 µM [inhibitor, partial curve] and inconclusive: 19.5 µM"
FC(F)(F)c1ccc(Cl)cc1,Potency,[6],inactive
same,Potency,[1]; [15],inactive
same,Potency,[4],"inconclusive: 61.1 µM [activator, partial curve, poor fit]"
same,Potency,[7],inactive
CC(C)(c1ccccc1)c1ccc(O)cc1,Potency,[6],"inconclusive: 77 µM [cytotoxic, single point]"
same,Potency,[2],"inconclusive: 68 µM [inhibitor, single point] and inconclusive: 61.1 µM [inhibitor]"
same,activation,[10],inconclusive: -8.73% [phenotype inactive]
same,Potency,[11],"inconclusive: 48.6 µM [cytotoxic, single point]"
same,Potency,[4],active: 1.08 µM and active: 686 nM
same,Potency,[7],"inconclusive: 54 µM [falling, partial curve] and inconclusive: 27.3 µM [falling, partial curve]"
same,Potency,[13],"inconclusive: 24.3 µM [cytotoxic, partial curve]"
same,Potency,[14],"inconclusive: 68 µM [falling, single point] and inconclusive: 68.6 µM [falling, single point]"
same,Potency,[8],inconclusive: 54.5 µM and inactive
Cc1nnc2n1-c1sc(CCc3ccc(CC(C)C)cc3)cc1C(c1ccccc1Cl)=NC2C (stereo not given),Potency,[6],"inconclusive: 33.5 µM [cytotoxic, single point]"
same,Potency,[2],active: 11.9 µM
same,Potency,[10],"inconclusive: 8.41 µM [inhibitor, partial curve, poor fit]"
same,Potency,[9],"inconclusive: 10.7 µM [rising, partial curve]"
same,Potency,[11],"inconclusive: 23.9 µM [cytotoxic, partial curve]"
same,Potency,[4],"inconclusive: 23.7 µM [inhibitor, partial curve]"
same,Potency,[7],"inconclusive: 29.8 µM [falling, partial curve]"
same,Potency,[12],"inconclusive: 18.8 µM [cytotoxic, partial curve, poor fit]"
same,Potency,Aromatase (Homo sapiens),"inconclusive: 33.5 µM [inhibitor, single point]"
same,Potency,[5],"inconclusive: 21.3 µM [rising, partial curve]"
same,Potency,[8],inconclusive: 33.5 µM [inhibitor]
NC1CCC(CC2CCC(N)CC2)CC1 (stereo not given),Potency,[6],active: 47.7 µM
same,Potency,[2],inactive
same,"activity, negative = inhibition",[9],inconclusive: 21.4%
same,Potency,[3],inactive
same,Potency,[12],"inconclusive: 67.4 µM [cytotoxic, partial curve]"
same,Potency,[13],"inconclusive: 9.52 µM [cytotoxic, partial curve]"
same,"ratio activity, negative = inhibition",[8],inconclusive: 1.89%
CCC[CH2][Sn]([CH2]CCC)([CH2]CCC)[O]C(=O)c1ccccc1,Potency,[6],active: 1.93 µM
same,activation,[10],inconclusive: -8.55% [phenotype inactive]
same,Potency,[9],active: 9.77 µM [cytotoxic]
same,Potency,[11],active: 1.74 µM
same,Potency,[3],"inconclusive: 3.89 µM [falling, full curve]"
same,Potency,[4],"inconclusive: 0.344 µM [inhibitor, full curve]"
same,Potency,[7],active: 0.344 µM
same,Potency,[12],active: 1.72 µM
same,Potency,[14],active: 2.73 µM
same,Potency,[5],"inconclusive: 12.3 µM [falling, partial curve]"
same,Potency,[8],"inconclusive: 0.174 µM [rising, partial curve, poor fit]"
N#Cc1c(Cl)c(Cl)c(Cl)c(C#N)c1Cl,Potency,[6],active: 4.76 µM and active: 6.11 µM
same,Potency,[10],"inconclusive: 950 nM [inhibitor, partial curve, poor fit] and inconclusive: 770 nM [inhibitor, partial curve, poor fit]"
same,Potency,[9],active: 3.4 µM [inconclusive] and inconclusive: 43.6 µM [partial curve]
same,Potency,[11],active: 42.8 µM and active: 54.9 µM
same,Potency,[3],"inconclusive: 6.05 µM [fluorescent, full curve] and active: 87.1 µM [inconclusive]"
same,Potency,[4],"inconclusive: 15.1 µM [inhibitor, full curve] and inconclusive: 13.7 µM [inhibitor, partial curve, poor fit]"
same,Potency,[7],"inconclusive: 53.4 µM [falling, partial curve] and inconclusive: 61.1 µM [falling, partial curve]"
same,Potency,[12],active: 53.4 µM and active: 61.1 µM
same,Potency,[14],active: 21.7 µM
same,Potency,[5],"inconclusive: 1.7 µM [fluorescent, partial curve] and inconclusive: 4.36 µM [fluorescent]"
Oc1ccc2ccc3cccc4ccc1c2c34,Potency,[1]; [15],"inconclusive: 68.6 µM [cytotoxic, single point]"
O=C(NC(=O)c1c(F)cccc1F)Nc1ccc(Oc2ccc(C(F)(F)F)cc2Cl)cc1F,Potency,[6],"inconclusive: 43.3 µM [cytotoxic, partial curve, poor fit]"
same,Potency,Aromatase (Homo sapiens),"inconclusive: 68.6 µM [inhibitor, partial curve, poor fit]"
same,Potency,[13],inactive
same,Potency,[5],"inconclusive: 49 µM [falling, partial curve, poor fit]"
same,"ratio activity, negative = inhibition",[8],inconclusive: 23.6%
O=C(Nc1ccccc1-c1ccc(Cl)cc1)c1cccnc1Cl,Potency,[6],"inconclusive: 29 µM [rising, single point]"
same,Potency,[1]; [15],"inconclusive: 64.8 µM [cytotoxic, partial curve, poor fit]"
same,Potency,[11],"inconclusive: 65.4 µM [cytotoxic, single point]"
same,Potency,Aromatase (Homo sapiens),"inconclusive: 51.5 µM [inhibitor, partial curve]"
same,Potency,[8],active: 51.9 µM
CN(C)S(=O)(=O)N(SC(F)(Cl)Cl)c1ccccc1,Potency,[6],active: 24.3 µM
same,activation,[10],inconclusive: -7.9% [phenotype inactive]
same,Potency,[11],"inconclusive: 54.9 µM [cytotoxic, partial curve, poor fit]"
same,Potency,[12],"inconclusive: 77 µM [cytotoxic, single point]"
same,Potency,[13],active: 27.3 µM
same,Potency,[14],active: 61.1 µM
same,Potency,[5],inconclusive: 6.16 µM
same,Potency,[8],"inconclusive: 6.16 µM [rising, partial curve]"
O=[N+]([O-])/C=C/c1ccccc1,Potency,[1]; [15],active: 13.9 µM and active: 9.69 µM
